Data published in PubChem BioAssay AID624418 (National Center for Advancing Translational Sciences (NCATS), 2012).
The campaign covered roughly 410,000 compounds. About 530 (0.13%) were called active. Inconclusive means that the source gave no clear call. Such entries were picked first, then a sample of the others. The call rests on the fitted dose curve; in most records, active means well fitted inhibition curve with a large enough effect; inconclusive means small, poorly fitted or top-dose-only effect, or another doubt; inactive means no such curve, though single readings can be large or run the other way. Where the call is inconclusive, the potency comes from a doubtful curve fit.

Assay: qHTS of GLP-1 Receptor Inverse Agonists: Cytotox Screen
Conditions: HEK293 cAMP-luciferase reporter cells, luminescence, 24 h; series mostly up to 38.3 µM
Procedure, shortened: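 Luminescence readout: signal drop marks cytotoxicity. Plated cells grew 12 h at 37 °C, 5% CO2, received 23 nL compound for 24 h, then got luciferase reagent, read after 12 min at RT.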
Potency means the concentration at half of the fitted maximal effect.

Row | Compound | Potency
1 | Cc1cc(Cl)ccc1C(=O)C1CCCN(C2CCSCC2)C1 (configuration not stated) | inactive
2 | CC(C)CCOP(=O)(c1ccc(N(C)C)cc1)C(O)c1ccc(Cl)cc1Cl (configuration not stated) | inconclusive: 28.2 µM [inhibitor, single point]
3 | O=c1[nH]c(=O)n(-c2ccccc2)c(O)c1/C=C1/C(c2ccccc2)=Nc2ccccc21 | inconclusive: 1 µM [inhibitor, full curve, poor fit]
4 | CC1=CC2/C=C(\C)CCC(O)C(O)/C=C/C(=O)C23C(=O)NC(CC(C)C)C3C1C (configuration not stated) | inconclusive: 11.2 µM [inhibitor, partial curve]
5 | COc1ccc(CCNCc2ccc(SC)cc2)cc1 | inactive
6 | COc1ccc(CC(=O)N/N=C(\C)c2ccccn2)cc1 | inconclusive: 28.2 µM [inhibitor, single point]
7 | COC(=O)C1=C(c2ccc(OCc3ccccc3)cc2)C[C@@H]2CC[C@H]1N2C(=O)NCCCc1ccccc1 | inactive
8 | O=C1NC(=O)C(=Cc2ccc(N3CCOCC3)o2)C(=O)N1 | inconclusive: 25.1 µM [inhibitor, single point]
9 | CCOc1ccccc1N1CCN(C(=O)c2ccc3c(c2)OCO3)CC1 | inconclusive: 28.2 µM [inhibitor, single point]
10 | CCCCCCCCCCOC(=O)Cn1c(COc2ccccc2C)[n+](C)c2ccccc21 | inconclusive: 28.2 µM [inhibitor, single point]
11 | FC(F)Oc1ccc(NC(=S)NNc2ccnc3cc(Cl)ccc23)cc1 | inconclusive: 12.6 µM [inhibitor, single point]
12 | CCC(C)c1ccc(NC(=S)NC2CCN(Cc3ccccc3)CC2)cc1 (configuration not stated) | inconclusive: 11.2 µM [inhibitor, partial curve, poor fit]
13 | CN(c1ccc(O)cc1)c1ccc([N+](=O)[O-])c2nonc12 | inconclusive: 10 µM [inhibitor, partial curve]
14 | O=C(/C=C\c1ccco1)Nc1cc([N+](=O)[O-])ccc1F | inconclusive: 0.891 µM [inhibitor, full curve, poor fit]
15 | COC(=O)C1=C(c2ccc(Cl)c(C(F)(F)F)c2)C[C@@H]2CC[C@H]1N2C(=O)N1CCC(O)(c2ccc(Cl)cc2)CC1 | inactive
16 | O=C(NC(c1ccc(-c2ccccc2)cc1)c1cnccn1)C1CCN(Cc2ccc3c(c2)OCO3)CC1 (configuration not stated) | inconclusive: 28.2 µM [inhibitor, single point]
17 | O=C(Cn1c(SCC(=O)Nc2ccc(F)cc2)nc2ccccc21)NCc1ccccc1Cl | inconclusive: 28.2 µM [inhibitor, single point]
